# Source: the BET-seq Pho4 binding data (Le et al. 2018)
# The other results are listed elsewhere or left out. The energies were worked out here from pooled read counts, against the library average; single values are noisy.
# Target: T1, Pho4 (S. cerevisiae) (UniProt P07270)
# T1 sequence: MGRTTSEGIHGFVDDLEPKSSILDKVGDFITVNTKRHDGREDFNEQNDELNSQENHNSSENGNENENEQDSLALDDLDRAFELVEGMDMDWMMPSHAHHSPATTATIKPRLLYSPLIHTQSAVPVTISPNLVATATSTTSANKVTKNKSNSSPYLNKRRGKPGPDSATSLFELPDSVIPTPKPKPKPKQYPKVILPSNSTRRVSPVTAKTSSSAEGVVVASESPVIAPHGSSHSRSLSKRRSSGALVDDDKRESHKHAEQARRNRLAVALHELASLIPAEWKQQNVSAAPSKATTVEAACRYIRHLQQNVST
# Test: relative binding free energy (BET-seq); higher = weaker binding
# Details: reference: library average
row,Sequence,relative binding free energy [kcal/mol]
1,TCGATCACGTGTTGGA,0.11
2,GTTAGCACGTGGGTTT,-0.13
3,TCGAGCACGTGTATGT,0
4,TGTGGCACGTGTCACG,-0.04
5,TCGGGCACGTGATGAG,0.1
6,GCTCGCACGTGGTTGG,-0.08
7,AGGCTCACGTGGGAGG,0.15
8,AAGCGCACGTGGTGGT,-0.11
9,TAGTTCACGTGCGTGT,0.18
10,CTGGTCACGTGAAGAT,0.3
11,CTTTTCACGTGTTTAT,0.29
12,TGATGCACGTGAGGGA,0.19
13,GATTTCACGTGGGGGC,0.23
14,TAGTTCACGTGGGTCG,0.12
15,AAGCGCACGTGTGAGG,-0.07
16,TTAATCACGTGTTTGC,0.19
17,GTGGGCACGTGGACCG,-0.07
18,GATGGCACGTGATGAA,0.11
19,CGGCGCACGTGGGTTA,-0.23
20,ATATTCACGTGGTACT,0.14
21,AGTAGCACGTGTACGG,0
22,GTGTACACGTGTGGGC,0.13
23,TATGGCACGTGGGTCA,-0.28
24,AGTCTCACGTGTTCGG,0.21
25,AGTATCACGTGTGGGC,0.17
26,ATTGTCACGTGTGCAA,0.07

row,Sequence,relative binding free energy [kcal/mol]
1,AGGATCACGTGCTGGG,0.14
2,GATATCACGTGATGGG,0.31
3,GGTGTCACGTGAGCGG,0.31
4,TGATACACGTGATTTG,0.35
5,ATGGTCACGTGGTTAT,0.05
6,GTTTTCACGTGACTTA,0.27
7,TTGCGCACGTGGATAT,-0.17
8,GTGTCCACGTGCGGTA,0.05
9,TGATACACGTGGGGGT,-0.08
10,TTTCTCACGTGTACGT,0.29
11,ATGGTCACGTGACATG,0.36
12,TCTAGCACGTGTTAGG,0.05
13,TGGCCCACGTGGTTTT,-0.06
14,GGGAGCACGTGAGGAA,0.17
15,TGGATCACGTGGGAAT,0.08
16,GTGGTCACGTGTTTGT,0.13
17,GTTGGCACGTGCTGGA,-0.13
18,CGAGTCACGTGCGGAG,0.23
19,AAGAGCACGTGGTGGA,-0.14
20,ATTAACACGTGGCTTG,-0.07
21,GGATTCACGTGTAGTA,0.4
22,GGTGTCACGTGTCGTG,0.14
23,CTCGGCACGTGGTGGC,-0.17
24,TAGCGCACGTGGCGTG,-0.3
25,TGTCGCACGTGCGAGT,-0.07
26,TTGTTCACGTGTCTCT,0.25

row,Sequence,relative binding free energy [kcal/mol]
1,TTTCTCACGTGTATGC,0.35
2,GTTGTCACGTGGTGGA,0.09
3,GACGGCACGTGGACGT,0.17
4,ATGGGCACGTGGTGCG,-0.2
5,GAGGTCACGTGGATAG,0.1
6,TCGGGCACGTGTATGT,0.02
7,TAAGACACGTGTGGAG,0.02
8,CTTTTCACGTGACGGG,0.22
9,TGGCTCACGTGTAGGG,0.13
10,AATGGCACGTGCACGT,-0.03
11,TTAATCACGTGTCGGG,0.26
12,GGGTTCACGTGCGTCT,0.19
13,TAAGTCACGTGAAGTA,0.31
14,TAGCGCACGTGGTGGC,-0.27
15,AGAATCACGTGGATTG,0.11
16,TTATACACGTGTCTAT,-0.1
17,GTAGACACGTGATGTG,0.06
18,ATTGCCACGTGTCGTG,-0.09
19,GAGTGCACGTGTATAT,0.05
20,GTAGTCACGTGAAGTG,0.28
21,ACAGGCACGTGTTGGC,0.05
22,CTGTTCACGTGATATG,0.27
23,TTCATCACGTGAAGGG,0.17
24,GATATCACGTGTTGTG,0.21
25,GGATTCACGTGAGCGG,0.4
26,TAGCGCACGTGTGAGG,0.04

row,Sequence,relative binding free energy [kcal/mol]
1,TGAAGCACGTGGGTTT,-0.1
2,TAATACACGTGTTGAA,0.1
3,AGTTGCACGTGCATGG,-0.06
4,TAGTTCACGTGGGAAC,0.26
5,CGGGGCACGTGGGTGC,-0.29
6,GGTCTCACGTGGTTCG,0.28
7,TTTATCACGTGAATGA,0.3
8,GTAGCCACGTGAGGGG,0.15
9,AGGAGCACGTGGGTGA,-0.34
10,TATCTCACGTGGGTTG,0.23
11,ATCGACACGTGTTGTT,0.04
12,AATATCACGTGGTTTG,0.11
13,AGAGTCACGTGAGGGG,0.3
14,ATATTCACGTGAATTG,0.24
15,GGATACACGTGGGCGT,-0.2
16,CTGTGCACGTGAGTCG,0.26
17,TGGGTCACGTGGCGAT,0.03
18,AAGTGCACGTGTATGT,0.05
19,GTATGCACGTGGGTTG,-0.13
20,CGCGACACGTGTGTGT,-0.04
21,TTATTCACGTGATAGT,0.22
22,TTCTCCACGTGTAGGT,0.05
23,ATGCTCACGTGAATGG,0.35
24,GGGTACACGTGCTAAG,0.12
25,AGATGCACGTGTCGTG,-0.01
26,TATAACACGTGGGCGA,-0.05

row,Sequence,relative binding free energy [kcal/mol]
1,GTCATCACGTGAGTTG,0.33
2,GGCATCACGTGTTAGT,0.23
3,GTTAGCACGTGCGGAT,-0.07
4,GACTGCACGTGAGGGA,0.41
5,GGTAGCACGTGGTGCA,-0.12
6,TGTATCACGTGCTGGC,0.16
7,TCTACCACGTGGTGTG,-0.01
8,TCATGCACGTGTTTTT,0.03
9,GTGCGCACGTGGGCGT,-0.17
10,TTTATCACGTGCAAGG,0.1
11,CATGGCACGTGTATGT,-0.01
12,TTGGTCACGTGGTATT,0.03
13,TTTACCACGTGGGGGG,-0.03
14,GTGGTCACGTGAAAAT,0.41
15,TGTTCCACGTGTGGAC,0.19
16,GTGCACACGTGTTTTG,0.07
17,ATTATCACGTGCTTAT,0
18,GTTCACACGTGGGCTG,0.05
19,GGCCTCACGTGTGGGG,0.13
20,GGTGACACGTGCGGTA,-0.1
21,CCGGGCACGTGTGAGG,0
22,GAGTACACGTGGAAGT,0.2
23,GATATCACGTGTTTTT,0.15
24,GGTCGCACGTGTTGGC,0.02
25,AGGTACACGTGTCTGG,0.03
26,TGGCTCACGTGGATAA,0.34

row,Sequence,relative binding free energy [kcal/mol]
1,CTTATCACGTGGACTG,0.36
2,AGCTTCACGTGGTGTG,0.2
3,TTGATCACGTGACGTG,0.14
4,GATGACACGTGAGGTG,0.34
5,CCGGGCACGTGAGGGG,0.07
6,AGGAGCACGTGCGTTA,-0.08
7,GGTGGCACGTGGGCTC,-0.24
8,CGAGTCACGTGAAGGT,0.35
9,ATGTACACGTGACTTT,0.24
10,GAGGACACGTGAGGGA,0.23
11,GGTGGCACGTGCGTCT,-0.09
12,TAGTGCACGTGACGCG,0.09
13,TACTGCACGTGTTGGA,-0.01
14,TCGTTCACGTGGTCGT,0.17
15,TTCAACACGTGTTATT,0.11
16,TGTGACACGTGTAGAT,0.3
17,GAGAACACGTGTGTTA,0.14
18,TGTATCACGTGCGTTG,0.04
19,TCTATCACGTGGATTG,0.11
20,GGCTGCACGTGTTTTA,0.2
21,AGACGCACGTGGGTGG,-0.18
22,TGTAGCACGTGTCGCT,-0.1
23,GGGGCCACGTGGTGAA,-0.04
24,TGGGCCACGTGCTTTG,-0.2
25,GTTGTCACGTGCCAGG,0.1
26,TTGCCCACGTGTTGGT,0

row,Sequence,relative binding free energy [kcal/mol]
1,GGGGACACGTGGTACG,-0.05
2,TTTGACACGTGTTCTT,0.04
3,TCGTACACGTGATGTG,0.19
4,TTGGTCACGTGTTCAT,0.01
5,GTTCGCACGTGCTTGG,-0.07
6,ATGAGCACGTGTCTTG,-0.19
7,AGGAACACGTGTTGTT,0.03
8,TTTATCACGTGCCTGT,0.04
9,GAACTCACGTGGGTTT,0.12
10,AGTGACACGTGGCGAT,-0.03
11,GGTGTCACGTGCAGTT,0.13
12,AGTGACACGTGTAGTA,-0.01
13,AAGTGCACGTGGTAAA,0
14,TGAGACACGTGTTGTG,0.02
15,AGGGACACGTGAGAGG,0.17
16,CGTATCACGTGTTGGA,0.26
17,CGGTTCACGTGTAGAT,0.47
18,CTTTTCACGTGATGAG,0.4
19,GTTAGCACGTGTGCAT,-0.04
20,GGTTGCACGTGCAGTA,-0.01
21,AAAGGCACGTGGGTCT,-0.14
22,GATTACACGTGGGGGC,0.13
23,GAAGTCACGTGGTATA,0.1
24,TGGGGCACGTGATGAT,-0.03
25,GTTATCACGTGGTCAT,0.2
26,CGTTTCACGTGGGAGA,0.1

row,Sequence,relative binding free energy [kcal/mol]
1,TTACGCACGTGTGGGT,0.05
2,GGCTGCACGTGGCGCG,-0.15
3,TGTGCCACGTGATGAG,0.07
4,TGTTTCACGTGAGGGA,0.32
5,TGTGTCACGTGTTCAC,0.08
6,GCGATCACGTGTGGGA,0.14
7,TGCGGCACGTGCAAGG,-0.1
8,GTGAGCACGTGTGTGC,0
9,GATTGCACGTGTCGAG,0.14
10,GTAGGCACGTGATCTT,0.02
11,GGGGGCACGTGGGGCT,-0.22
12,TCATTCACGTGGTTTA,0.21
13,TCCTTCACGTGGTGTT,0.12
14,TTTCACACGTGATATG,0.08
15,ATTTTCACGTGCGATT,0.29
16,TATCACACGTGTTATT,0.12
17,TGTCACACGTGTTTGA,-0.06
18,GACTTCACGTGTAGTG,0.22
19,GTGCGCACGTGCGTGG,-0.13
20,AGGGTCACGTGACATT,0.1
21,AGCGTCACGTGGCGTT,0.02
22,TGTAGCACGTGGATTG,-0.08
23,AATTTCACGTGAGAGT,0.36
24,TTGCACACGTGTTGTG,0.02
25,AGTGGCACGTGATTAG,0.01
26,GGGAACACGTGGGGAG,-0.07

row,Sequence,relative binding free energy [kcal/mol]
1,GGACTCACGTGAGTGG,0.28
2,CGAGCCACGTGGGGGG,-0.23
3,TCGTTCACGTGGCTGT,0.15
4,CTGGTCACGTGAAGGG,0.27
5,AGGCGCACGTGTATAT,-0.06
6,GAGGTCACGTGCGAGA,0.24
7,AATTTCACGTGCGCGT,0.31
8,GAAGTCACGTGGGGGT,0.04
9,GCAGTCACGTGGGGTA,-0.06
10,GTGGCCACGTGCGTGT,-0.25
11,AGGTACACGTGAGAAT,0.41
12,AGGAGCACGTGGAATG,0
13,CTGATCACGTGTGCTT,0.24
14,GATTTCACGTGTTAAA,0.39
15,GTGACCACGTGTGATT,0.12
16,TTGAGCACGTGTGAAA,-0.06
17,AAGAGCACGTGGGTTA,-0.19
18,AGAGTCACGTGCAAGT,0.19
19,GTGCGCACGTGGGTCA,-0.22
20,CACTTCACGTGTGGGT,0.34
21,GCATGCACGTGTAGTT,0.08
22,TTTGACACGTGGGTAC,-0.14
